Assay results reported in PubChem BioAssay AID485290 (National Center for Advancing Translational Sciences (NCATS), 2010).
In all, about 350,000 compounds went through this assay and about 990 (0.28%) were called active. Inconclusive means that the source gave no clear call. Such entries were picked first, then a sample of the others. The call rests on the fitted dose curve; in most records, active means well fitted inhibition curve with a large enough effect; inconclusive means small, poorly fitted or top-dose-only effect; inactive means no such curve, though single readings can be large or run the other way. Potencies beside an inconclusive call are fits to weak or partial responses and may not hold up.

molecular target: Tyrosyl-DNA phosphodiesterase 1 (Homo sapiens) (UniProt Q9NUW8); assay: qHTS Assay for Inhibitors of Tyrosyl-DNA Phosphodiesterase (TDP1); conditions: recombinant TDP1, AlphaScreen DNA substrate cleavage; activity change, negative = inhibition: at 130 µM (top of the series) unless noted; further: nearly all actives have a fitted effect of over 40% in size
Sequence of UniProt Q9NUW8 (Q9NUW8 whole entry, looked up): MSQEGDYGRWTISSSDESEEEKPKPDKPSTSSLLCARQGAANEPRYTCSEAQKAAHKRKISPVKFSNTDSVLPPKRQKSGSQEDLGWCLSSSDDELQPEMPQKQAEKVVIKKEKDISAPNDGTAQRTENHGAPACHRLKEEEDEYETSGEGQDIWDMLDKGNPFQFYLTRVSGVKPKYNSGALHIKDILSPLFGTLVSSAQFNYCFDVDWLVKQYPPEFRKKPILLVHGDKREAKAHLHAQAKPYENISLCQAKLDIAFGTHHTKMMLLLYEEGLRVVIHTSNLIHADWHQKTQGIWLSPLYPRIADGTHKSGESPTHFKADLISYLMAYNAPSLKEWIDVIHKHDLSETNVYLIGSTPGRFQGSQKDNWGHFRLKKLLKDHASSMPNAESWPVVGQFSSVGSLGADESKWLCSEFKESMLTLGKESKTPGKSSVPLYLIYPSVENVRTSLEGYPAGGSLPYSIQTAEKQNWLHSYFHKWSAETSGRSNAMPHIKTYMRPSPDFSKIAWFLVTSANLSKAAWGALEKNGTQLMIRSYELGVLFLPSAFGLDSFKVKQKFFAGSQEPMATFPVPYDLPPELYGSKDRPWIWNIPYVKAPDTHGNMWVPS
How it was run: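 Tdp1 1 nM final; 15 min RT w/ cpd; substrate 15 nM, 5 min; beads 10 ug/ml, 10 min; AlphaScreen read. Neg ctrl: no enzyme.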
On the % scale 0 is the no-effect control and ±100 the full control effect; potency means the concentration at half of the fitted maximal effect; tags describe the fitted curve by direction and shape.

Potency, active:
COc1ccc2oc(=O)c(/C(N)=N/NC(=O)c3ccncc3)cc2c1 50.1 µM
O=C(N/N=C/c1cn(Cc2cccc(F)c2)c2ccccc12)c1cc(O)cc(O)c1 0.631 µM
O=C(CSc1nc(-c2ccc(F)cc2)nc2c1Cc1ccccc1O2)Nc1cccc(C(=O)O)c1 3.98 µM
Cc1ccc(C)c(OCC(=O)Nc2cc(NC(=O)COc3cc(C)ccc3C)cc(C(=O)O)c2)c1 50.1 µM
O=C(COC(=O)c1ccc(Cl)c(S(=O)(=O)N2CCCC2)c1)NCc1ccccc1 35.5 µM
CCn1c(=O)c(C(=O)NCCCc2ccccc2)c(O)c2ccccc21 56.2 µM
O=C(O)CCc1ccc(S(=O)(=O)Nc2cc(C(F)(F)F)ccc2N2CCCC2)cc1 17.8 µM
CC1CCN(C(=O)c2ccc(S(=O)(=O)NCc3ccco3)cc2)CC1 89.1 µM
CN(CC(=O)Nc1ccc(N2CCOCC2)cc1)C(=O)CSc1ccc(Br)cc1 89.1 µM
NC(=O)c1ccc2c(=O)n3c(-c4cc(Cl)c(N)c(Cl)c4)csc3nc2c1 79.4 µM
O=C(CSc1nc2ccccc2[nH]1)NC1CCCC1 44.7 µM
CC(=O)c1ccc(NC(=O)c2noc3c2CCC3)cc1 25.1 µM

Potency, inactive:
Cc1ccc(CNC(=O)C2CCN(Cc3nc(-c4ccccc4C)oc3C)CC2)cc1
COc1cccc(-c2csc(-c3c(N)c(C(=O)c4ccc5c(c4)OCO5)n4ccccc34)n2)c1
Cc1cc(C)n(CCc2nc3c4ccccc4nc(SCc4ccc(Cl)cc4)n3n2)n1
CC(=O)c1ccc(NC(=O)c2ncn(-c3ccccc3)n2)cc1
O=c1[nH]c(/C(Cl)=C/c2cc(Cl)ccc2O)nc2cc(Cl)ccc12
O=C(Nc1ccc(Br)cc1Br)C1CC(=O)N(Cc2ccccc2)C1 (configuration not stated)
COc1ccc(C2C(C#N)=C(SC)NC3=C2C(=O)CC(C)(C)C3)cc1 (configuration not stated)
COc1cccc(-c2noc(C3CC(=O)N(c4ccc(F)cc4)C3)n2)c1OC (configuration not stated)
CCOc1cc(C2CC(=O)NC3=C2C(=O)C(C(=O)OC)C(C)C3)cc(Cl)c1O (configuration not stated)
COc1ccc(CNC(=O)CCCN2C(=O)COc3ccc(C)cc32)cc1
Cc1ccc(CNC(=O)C2CCC(=O)N(C3CC3)C2)cc1 (configuration not stated)
CCc1ccccc1NC(=O)Cn1c(=O)n(-c2ccc(C)cc2)c(=O)c2c1c1cc(C)ccc1n2C
OCCC1CN(CC#Cc2ccccc2)CCN1C1CCCC1 (configuration not stated)
C/C(=N\NC(=O)C1(C)CC1(Br)Br)c1cccc(NC(=O)C2CCC2)c1 (configuration not stated)
CC(=O)N1CC=CC1(CC(C)C)C(=O)NCc1cc(F)cc(C(F)(F)F)c1 (configuration not stated)
Cc1c(OC(C)C(=O)NCCN2CCOCC2)ccc2c3c(c(=O)oc12)CCCC3 (configuration not stated)
COc1ccc2c(CNCc3cccs3)c(C(=O)O)n(Cc3cccc(F)c3)c2c1
Cc1ccc2nc(-c3ccc(Cl)c(NC(=O)c4ccc5c(c4)OCCO5)c3)oc2c1
CC(C)=CCC/C(C)=C/CNC(=O)C[C@H]1C[C@H](C(=O)N(C(C)C)C(C)C)[C@@]2(C)c3[nH]c4ccc(Cl)cc4c3CCN2C1=O
O=C(CSC1=Nc2ccccc2C2CC=NN12)Nc1ccc(F)cc1Cl (configuration not stated)

Potency, inconclusive:
Cc1cccc(NC(=O)CCc2nnc3ccc(NCc4ccco4)nn23)n1 25.1 µM [inhibitor, full curve]
Cn1c2ccccc2c2cc(C(=O)NNC(=O)CCl)sc21 44.7 µM [inhibitor, single point]
c1ccc2cc(OCCOCCOc3ccc4ccccc4c3)ccc2c1 20 µM [inhibitor, single point]
O=C(Nc1ccccc1C(=O)O)c1ccccc1 44.7 µM [inhibitor, partial curve]
COc1ccc(Nc2nc(-c3ccccc3)nc3ccccc23)c(OC)c1 63.1 µM [inhibitor, partial curve, poor fit]
COc1ccc(O)c(N)c1 0.631 µM [inhibitor, full curve]
Cn1c(/C(C#N)=C(\O)c2ccc(Cl)s2)nc2ccccc21 44.7 µM [inhibitor, partial curve]
COCCNC(=O)c1ccc2c(c1)nc(C)n2-c1cc(OC)c(OC)c(OC)c1 89.1 µM [inhibitor, single point]
Cc1cccn2c(=O)c(/C=N/O)c(Nc3ccccc3F)nc12 17.8 µM [inhibitor, partial curve]
N#Cc1c(Nc2ccccc2)c(/C=N/N=C/c2ccccc2)c[nH]c1=O 28.2 µM [inhibitor, single point]
c1cnc(SCCOc2cccc3ccccc23)nc1 39.8 µM [inhibitor, full curve, poor fit]
Cc1ccccc1C(=O)OCC(=O)NCc1ccco1 39.8 µM [inhibitor, partial curve]
CC(C(=O)O)N1C(=O)/C(=C/C=C/c2ccco2)SC1=S (configuration not stated) 2.24 µM [inhibitor, full curve]
CC(C)c1ccc(N2C(=O)CC(Sc3ncn[nH]3)C2=O)cc1 (configuration not stated) 0.398 µM [inhibitor, full curve, poor fit]
COC(=O)c1ccccc1NC(=O)c1cc2ncc(Br)cn2n1 44.7 µM [inhibitor, single point]
Cc1ccc(-n2c(-c3ccncc3)n[nH]c2=S)cc1 2 µM [inhibitor, full curve]
CC1CCCCC1N1CCN(C(=O)c2cccc(F)c2)CC1 (configuration not stated) 3.16 µM [inhibitor, full curve, poor fit]
Cc1cc(=O)n2[nH]c(SCc3ccccc3)nc2n1 100 µM [inhibitor, single point]
CCCOc1cc(C)nc(-c2ccccc2O)n1 35.5 µM [inhibitor, single point]
Cc1ccccc1CC(=O)Nc1ccc2c(C)cc(=O)oc2c1 79.4 µM [inhibitor, partial curve]
O=C(O)CC1S/C(=N/N=C/c2ccc(-c3ccccc3[N+](=O)[O-])o2)NC1=O (configuration not stated) 22.4 µM [inhibitor, full curve, poor fit]
Cc1ccc(C(=O)Nc2ccc(C(=O)N/N=C/c3cccnc3)cc2)cc1 89.1 µM [inhibitor, single point]
O=C(CCn1cccc1)NCc1ccc2c(c1)OCO2 89.1 µM [inhibitor, partial curve]
Cc1c[n+]([O-])n(-c2ccc(C(=O)O)cc2)n1 15.8 µM [inhibitor, single point]
O=S1(=O)c2ccccc2C(CCO)N1Cc1ccccc1 (configuration not stated) 3.55 µM [inhibitor, single point]
O=C(CN1CCOCC1)N1CCN(c2ccc([N+](=O)[O-])cc2)CC1 100 µM [inhibitor, partial curve, poor fit]
COCCNC(=O)c1ccccc1N(Cc1ccccc1)S(=O)(=O)c1ccc(C)cc1 3.55 µM [inhibitor, partial curve]
Cc1n[nH]c(C)c1S(=O)(=O)N1CCN(S(=O)(=O)c2cccc(F)c2)CC1 79.4 µM [inhibitor, partial curve]
O=C(/C=C/c1ccco1)OCn1nnc2ccccc2c1=O 12.6 µM [inhibitor, full curve]
C=C(C)CSc1nc2ccccc2c(=O)n1-c1c(C)n(C)n(-c2ccccc2)c1=O 89.1 µM [inhibitor, single point]
Cc1ccccc1C(=O)Nc1cccc(C(=O)OCc2cc(=O)n3c(C)csc3n2)c1 10 µM [inhibitor, single point]
Nc1cc(=O)[nH]c(SCC(=O)N2N=C(c3ccc4ccccc4c3)CC2c2ccccc2)n1 (configuration not stated) 79.4 µM [inhibitor, single point]
C=C(C)C(=O)O[C@H]1C/C(C)=C\C(=O)/C=C(\C)[C@H](O)[C@@H]2OC(=O)C(=C)[C@@H]21 39.8 µM [inhibitor, partial curve]
O=C(N/N=C/c1ccco1)c1ccc(NC(=O)c2ccc(Cl)cc2)cc1 31.6 µM [inhibitor, partial curve]
O=S(=O)(c1ccc(Br)s1)N1CCN(c2ccc(F)cc2)CC1 89.1 µM [inhibitor, single point]
N=C1/C(=C\c2ccc(SCc3ccco3)o2)C(=O)N=C2SC=NN12 3.55 µM [inhibitor, full curve]
CCn1c(C)nc2cc(OC)ccc21 89.1 µM [inhibitor, single point]
Cc1ccc(NS(=O)(=O)c2ccc3c(c2)CC(=O)N3)cc1Cl 63.1 µM [inhibitor, single point]
O=C(O)CSc1cc(C(=O)c2ccccc2O)cn2c(=O)c3c(-c4ccccc4)csc3nc12 89.1 µM [inhibitor, single point]

Activity change, negative = inhibition, inconclusive:
CCn1c(NC(=O)/C=C/c2ccc(F)cc2)nc2ccccc21 -25.6% [inhibitor] [at 0.0935 µM]
